Laboratory results reported in PubChem BioAssay AID588855 (National Center for Advancing Translational Sciences (NCATS), 2011).
In all, about 410,000 compounds went through this assay and about 5,000 (1.2%) were called active. This list was built around the results that the source calls inconclusive (neither active nor inactive); the mix of calls is not that of the screen. Calls follow the shape of the dose curve; as a rule, active = well fitted inhibition curve with a large enough effect; inconclusive = small, poorly fitted or top-dose-only effect; inactive = no such curve, though single readings can be large or run the other way. Where the call is inconclusive, the potency comes from a doubtful curve fit.
Potency is read from the fitted curve at half-maximal effect; tags tell the direction and shape of the fitted curve.

Assay: qHTS for Inhibitors of TGF-b; also: nearly all actives have a fitted effect of over 65% in size
Conditions: HepG2 CAGA-GFP TGF-b/SMAD3 reporter, GFP fluorescence, 18 h, TGF-beta stimulated, 500 pg/mL final; series mostly up to 46.1 µM
How it was run: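 HEPG2 CAGA-GFP reporter cells (1000/well, DMEM with 1% FBS) received compounds, then recombinant TGF-beta at 500 pg/mL final for 18 hours at 37 degrees C. Per-cell GFP summed per well was normalised to unstimulated and stimulated DMSO controls before curve fitting.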
In the case of `Oc1cccc(/C=N/NP(=S)(c2ccccc2)c2ccccc2)c1`, the Potency is reported as inconclusive: 15.8 µM [inhibitor, single point].
For `c1cc2c(cc1[C@H]1OCC3C1CO[C@@H]3c1ccc3c(c1)OCO3)OCO2` (stereo partly specified), the Potency was inconclusive: 15.8 µM [inhibitor, single point].
In the case of `COC(=O)C1=C(c2ccccc2OCc2ccccc2)C[C@@H]2CC[C@H]1N2C(=O)NCc1ccc(Br)cc1`, the Potency is reported as “inactive”.
With `COC(=O)C1=C(c2cccc(C#N)c2)C[C@@H]2CC[C@H]1N2C(=O)NCCO` the Potency was “inactive”.
For `Cc1cc2oc(=O)cc(-c3ccccc3)c2c(C)c1-c1ccc(CO)cc1`, the Potency was inconclusive: 20 µM [inhibitor, single point].
For `O=c1c2ccccc2nc(-c2ccccc2Cl)n1-c1cccc(O)c1`, the Potency was “inactive”.
In the case of `C[C@H]1CC[C@@H]2[C@@H](C)[C@H]3[C@H](C[C@H]4[C@@H]5CC=C6C[C@@H](O[C@@H]7O[C@H](CO)[C@H](O)[C@H](O[C@@H]8O[C@H](CO)[C@@H](O)[C@H](O)[C@H]8O)[C@H]7O[C@@H]7O[C@@H](C)[C@H](O)[C@@H](O)[C@H]7O)CC[C@]6(C)[C@H]5CC[C@]34C)N2C1`, the Potency is reported as inconclusive: 25.1 µM [inhibitor, single point].
With `CCOC(=O)c1oc2ccc(S(=O)(=O)n3nc(-c4ccc(Cl)cc4)cc3N)cc2c1C` the Potency was inconclusive: 7.08 µM [inhibitor, partial curve].
With `COc1ccc(NC(=O)CCc2nc(C3=CCN(Cc4cccc(Cl)c4)CC3)no2)c(OC)c1` the Potency was inconclusive: 8.91 µM [inhibitor, partial curve, poor fit].
In the case of `COc1cc(/C=C/c2nc3ccccc3c(=O)n2-c2ccccc2O)ccc1O`, the Potency is reported as “inactive”.
In the case of `C/C(=C\c1ccc(N(C)C)cc1)[N+](=O)[O-]`, the Potency is reported as inconclusive: 35.5 µM [inhibitor, single point].
With `O=C1NC(=O)C(=Cc2cn(CCOc3ccc4c(c3)OCO4)c3ccccc23)C(=O)N1` the Potency was inconclusive: 0.282 µM [inhibitor, full curve, poor fit].
With `COc1ccc(-n2c(-c3ccccc3[N+](=O)[O-])nc3ccccc3c2=O)cc1` the Potency was “inactive”.
For `O=C(O)CC1OCC=C2CN3CCC45C6=CC(=O)C(=O)C([N+](=O)[O-])=C6NC4C1C2CC35` (stereo unspecified), the Potency was inconclusive: 22.4 µM [inhibitor, single point].
With `O=C1NCN(c2ccccc2)C12CCN(C(CCc1ccccc1)c1nnnn1C1CCCCC1)CC2` (stereo unspecified) the Potency was active: 12.6 µM.
With `Cc1ccc(NC(=O)CSc2nnc([C@@H](N)Cc3c[nH]c4ccccc34)o2)c(C)c1` the Potency was inconclusive: 6.31 µM [inhibitor, single point].
